In PubChem BioAssay AID1671188 (National Center for Advancing Translational Sciences (NCATS), 2021):
Several values for one entry are separate records, joined by “and”; a condition that tells them apart may be missing. Equal entries are not always repeated. Hit rate of the full screen: of about 100,000 compounds, about 250 (0.25%) were called active. The inconclusive results got no clear call from the source; some entries with a clear call stand among them for comparison. Calls come from the whole dose curve; as a rule, active = well fitted inhibition curve with a large enough effect; inconclusive = small, poorly fitted or top-dose-only effect; inactive = flat fitted curve, though single readings scatter. A potency beside an inconclusive call is a rough fit, not a confirmed value.

biological target: Alanine aminotransferase 2 (Homo sapiens) (UniProt Q8TD30); experiment: Primary qHTS assay for inhibitors of Glutamate pyruvate transaminase 2 (GPT2); settings: Recombinant GPT2, coupled pyruvate oxidase/HRP Amplex Red fluorescence; series mostly up to 57.7 µM; note: nearly all actives have a fitted effect of over 60% in size
Outline: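 Fluorescence read-out: pyruvate from GPT2 turnover coupled to pyruvate oxidase, HRP and Amplex Red (0.2mM ThPP, 0.2U/mL PO and HRP, 50uM Amplex final). Substrates 250uM a-KG, 2mM L-alanine; enzyme 10ng/uL; 30 min RT.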
Potency is the fitted concentration of half-maximal effect; tags give direction and shape of the fitted curve.

UniProt Q8TD30, sequence (Q8TD30 whole entry, looked up): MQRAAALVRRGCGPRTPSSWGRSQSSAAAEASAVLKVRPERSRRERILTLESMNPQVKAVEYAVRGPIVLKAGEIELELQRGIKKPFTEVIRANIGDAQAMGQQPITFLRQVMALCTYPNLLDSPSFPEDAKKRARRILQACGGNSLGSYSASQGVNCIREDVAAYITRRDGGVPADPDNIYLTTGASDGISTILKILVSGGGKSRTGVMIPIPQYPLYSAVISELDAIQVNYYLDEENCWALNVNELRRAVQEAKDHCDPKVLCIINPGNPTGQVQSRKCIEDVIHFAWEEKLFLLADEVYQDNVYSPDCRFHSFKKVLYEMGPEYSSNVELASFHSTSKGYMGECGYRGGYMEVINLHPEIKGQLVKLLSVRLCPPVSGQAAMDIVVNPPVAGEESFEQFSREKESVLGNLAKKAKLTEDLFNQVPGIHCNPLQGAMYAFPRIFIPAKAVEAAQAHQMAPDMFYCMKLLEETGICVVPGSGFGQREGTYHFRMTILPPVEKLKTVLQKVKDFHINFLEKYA

With `CC(C)CC1=NS(=O)(=O)c2cc(NC(=O)C3CC3)ccc2N1c1ccccc1` as the compound, how does the Potency read?
Its Potency is “inactive”.

For `O=C(O)C1CCc2nnc(C3CCN(C(=O)c4ccc5c(c4)OCO5)CC3)n21` (centres undefined), which Potency is on record?
Its Potency is inconclusive: 17.8 µM [inhibitor, partial curve, poor fit].

`CC(C)CCN1CCC2(CC1)Cc1ccccc1NC2=O` was tested. Which Potency did it give?
The Potency was inconclusive: 11.2 µM [inhibitor, single point].

How did the Potency turn out when `Cc1cc(=O)n(CC(=O)Nc2cc(Cl)ccc2C)c(N2CCN(c3ccccc3)CC2)n1` was run?
Its Potency is “inactive”.

For `Cn1c(CNC(=O)CC[C@H]2NC(=O)c3ccccc3NC2=O)nc2ccccc21`, which Potency is on record?
The Potency was inconclusive: 6.31 µM [inhibitor, single point].

How did the Potency turn out when `COc1cc(N2CCC(O)CC2)ccc1Nc1cc(Nc2ccccc2S(=O)(=O)C(C)C)c2cc[nH]c2n1` was run?
The Potency was inconclusive: 28.2 µM [inhibitor, single point] and active: 3.43 µM.

With `C#CCN(C)C(=O)C[C@@H]1c2nc(-c3cccnc3)sc2C[C@@H]2[C@](C)(CO)[C@H](O)CC[C@]21C` as the compound, how does the Potency read?
Its Potency is inconclusive: 5.62 µM [inhibitor, single point].

Which Potency does the source give for `CC(C)CCN1CCC(O)(c2csc(CN3CCc4ccccc4C3)n2)CC1` here?
Its Potency is “inactive”.

For `O=C(Cc1cccc(F)c1)N1CCC(Cc2nc(C3CCOCC3)no2)CC1`, which Potency is on record?
Its Potency is inconclusive: 8.91 µM [inhibitor, single point].

Which Potency does the source give for `CN(C)C[C@@H]1CN(c2ccccn2)C[C@H]1NC(=O)c1cnco1` here?
The Potency was inconclusive: 28.2 µM [inhibitor, partial curve, poor fit].

`CCOCCOC1CCN(C(=O)c2cc(-c3cccc(OC)c3)n[nH]2)CC1` was tested. Which Potency did it give?
The Potency was inconclusive: 28.2 µM [inhibitor, single point].

Which Potency does the source give for `COc1ccc(C2Cn3nnc(C(=O)N4CCN(C(=O)Cc5ccc(Cl)cc5)CC4)c3CO2)cc1` (centres undefined) here?
The Potency was “inactive”.

How did the Potency turn out when `CCOc1cccc(CNC(=O)C2CCN(C(=O)c3ncn4c3COC(c3ccccc3)C4)CC2)c1` (centres undefined) was run?
Its Potency is “inactive”.

Which Potency does the source give for `CS(=O)(=O)c1ccc(CC(=O)N[C@H](c2ccccn2)C2CC(O)C2)cc1` (some centres undefined) here?
The Potency was inconclusive: 35.5 µM [inhibitor, partial curve, poor fit].

How did the Potency turn out when `O=C(NCc1cnn(Cc2ccccc2)c1)c1ccc2oc(-c3cccc(F)c3)nc2c1` was run?
Its Potency is inconclusive: 7.08 µM [inhibitor, single point].

With `Cc1noc(C)c1CCCNC(=O)c1ccc(NC[C@H]2C[C@H]3C=C[C@H]2C32CC2)nc1` as the compound, how does the Potency read?
Its Potency is inconclusive: 39.8 µM [inhibitor, partial curve, poor fit].

Which Potency does the source give for `COc1cc(C2c3cc4c(c(O)c3CC(CO)C2C(=O)O)OCO4)cc(OC)c1O` (centres undefined) here?
Its Potency is inconclusive: 2.51 µM [inhibitor, full curve].

Which Potency does the source give for `CNC(=O)CCn1ncc2cc(OCc3ccccc3-c3cccc(C)c3)ccc21` here?
The Potency was inconclusive: 44.7 µM [inhibitor, single point].

How did the Potency turn out when `CN1CCC(N[C@@H]2CCC[C@@H](C(=O)NC3CC3)CC(=O)N(C)C2)CC1` was run?
The Potency was inconclusive: 7.94 µM [inhibitor, single point].

For `Cc1ccc(C(=O)N2CC(Oc3ccc4c(c3)OCO4)C2)cc1`, which Potency is on record?
The Potency was inconclusive: 44.7 µM [inhibitor, single point].

With `O=C(C[C@H]1NC(=O)c2ccccc2NC1=O)Nc1nnc(Cc2ccccc2)s1` as the compound, how does the Potency read?
The Potency was inconclusive: 8.91 µM [inhibitor, single point].

`CN(c1ccccc1)c1cc(=O)c2ccnc(-c3ccc(CO)cc3)c2o1` was tested. Which Potency did it give?
Its Potency is inconclusive: 12.6 µM [inhibitor, partial curve, poor fit].

For `O=C(NCCC1CCN(C(=O)Nc2ccccc2F)CC1)c1cccs1`, which Potency is on record?
The Potency was inconclusive: 0.708 µM [inhibitor, partial curve, poor fit].

`C[C@](N)(Cc1ccc(O)c(O)c1)C(=O)O` was tested. Which Potency did it give?
The Potency was active: 20 µM and active: 8.63 µM and active: 7.94 µM.

How did the Potency turn out when `CN(C)c1ccc(CN2CCOC[C@H]2c2ncc(-c3ccc(F)cc3)[nH]2)cc1` was run?
The Potency was inconclusive: 3.16 µM [inhibitor, full curve, poor fit].

`O=C1N2CCCC2CN1C1CCN(Cc2cccc(Cl)c2)CC1` (centres undefined) was tested. Which Potency did it give?
The Potency was “inactive”.

Which Potency does the source give for `CCn1c(C2CCCNC2)nn(Cc2ccc(C(=O)NC)o2)c1=O` (centres undefined) here?
The Potency was inconclusive: 7.08 µM [inhibitor, single point].

With `Cc1ccc2c(n1)N(C)[C@H](CO)CCN(Cc1ccc(Cl)cc1)C2` as the compound, how does the Potency read?
The Potency was inconclusive: 1.12 µM [inhibitor, full curve, poor fit].

`COc1ccc(Cn2c(C3CCN(C(=O)c4ccc(C)c(F)c4)CC3)n[nH]c2=O)cc1` was tested. Which Potency did it give?
The Potency was “inactive”.

With `CC(=O)Oc1cc2c(s1)CCN([C@H](C(=O)C1CC1)c1ccccc1F)C2` as the compound, how does the Potency read?
Its Potency is inconclusive: 39.8 µM [inhibitor, single point].

With `OCC1CN(C2CCC2)CC12CCN(Cc1cc(F)ccc1F)CC2` (centres undefined) as the compound, how does the Potency read?
Its Potency is “inactive”.

Which Potency does the source give for `CO[C@H]1CN(C2CCN(C(=O)CCC3CCCC3)CC2)[C@H]1c1cccnc1` here?
The Potency was inconclusive: 0.631 µM [inhibitor, full curve, poor fit].

With `Cn1cccc1CN1CCC2(C1)C(=NC1CCCCC1)NC(=O)N2c1cc(F)cc(F)c1` (centres undefined) as the compound, how does the Potency read?
Its Potency is inconclusive: 39.8 µM [inhibitor, single point].

How did the Potency turn out when `COc1ccc(/C=C/c2ccc3c(c2)C(=O)N2CC[C@H](NC(=O)CCC(=O)O)[C@H]2C(=O)N3)cc1` was run?
Its Potency is “inactive”.

Which Potency does the source give for `COc1ccc(C(=O)NC2CCN(c3nccc(Nc4ccc(C)cc4)n3)CC2)cc1` here?
The Potency was “inactive”.

Which Potency does the source give for `Cc1cn2cc(C(=O)NCc3cn4c(n3)SCC4)ccc2n1` here?
The Potency was “inactive”.

Which Potency does the source give for `C[C@@H](OC(=O)/C=C/c1ccc(O)cc1)C1=C[C@]2(C=C[C@@H]3C(C(=O)O)=CO[C@@H](O[C@@H]4O[C@H](CO[C@@H]5O[C@H](CO)[C@@H](O)[C@H](O)[C@H]5O)[C@@H](O)[C@H](O)[C@H]4O)[C@@H]32)OC1=O` here?
The Potency was inconclusive: 2.51 µM [inhibitor, single point].

With `CC(C)NC(=O)c1cn2cc(-c3ccc(F)cc3)sc2n1` as the compound, how does the Potency read?
The Potency was inconclusive: 56.2 µM [inhibitor, single point].

Which Potency does the source give for `CC1CCCCC1Nc1ncnc2c1CN(C1CCCNCC1)C(=O)CN2C` (centres undefined) here?
Its Potency is inconclusive: 3.16 µM [inhibitor, partial curve, poor fit].
